Measured values from PubChem BioAssay (NCI).
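Dose response: 5 concentrations. Exposure: 48 h. Format: 96-well plates. Endpoint: linear interpolation; highest concentration if not reached. At the GI50, growth is halved. The concentration for full growth arrest is given as TGI.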

Test system: NCI-H322M lung
Experiment: NCI tumour cell line growth inhibition, 48 h

| SMILES | GI50 [µM] | TGI [µM] |
| --- | --- | --- |
| COC1[C@@H]2C[C@H]3C(C)(C)O[C@@](C/C=C(/C)C(=O)O)(C2=O)[C@]32Oc3c(CC=C(C)C)c4c(c(O)c3C(=O)[C@H]12)C=CC(C)(C)O4 (stereo partly drawn) | 16.4 | 31.6 |
| Cc1ccc2c(c1)Oc1nc(N)c(C#N)c(N)c1C2Sc1ccc(F)cc1 (stereo not drawn) | 1.51 | 2.84 |
| Nc1nc(-c2cccc([N+](=O)[O-])c2)c(N=Nc2ccc([N+](=O)[O-])cc2Cl)s1 | 0.335 | 9.59 |
| CCCn1cnc2c(c1=N)C(c1ccc(OC)cc1)c1sc3c(C)cccc3c1O2 (stereo not drawn) | 0.805 | 36.4 |
